Data from PubChem BioAssay (NCATS).
Several values for one entry are separate records, joined by “and”; a condition that tells them apart may be missing. Identical values can stand only once. This list was built around the results that the source calls inconclusive (neither active nor inactive); the mix of calls is not that of the screen. For part of these data: Potencies of inconclusive entries are doubtful fits and often do not repeat. For part of these data: A note “side channel” means that the fit belongs to a control or component signal, not to the main read-out. Activity calls are given as the source filed them. Unless noted, calls come from the whole dose curve.

Key:
[1] = biological target: Estrogen receptor (Homo sapiens) (UniProt P03372); experiment: qHTS assay for small molecule antagonists of estrogen receptor alpha signaling (AID 588513; active = well fitted curve in the direction sought with a large enough effect in the signal ratio, with a control signal flat, not every such curve was filed as active; inconclusive = small, poorly fitted or top-dose-only effect, or effect the other way, or a change in a side signal; inactive = no such curve, though single readings can be large or run the other way; the % refers to the signal ratio; note: potency is the fitted concentration of half-maximal effect; for activity, negative = inhibition: % is set by controls: 0 for no effect and ±100 for the full control effect); conditions: ER-alpha-UAS-bla HEK293, beta-lactamase ratio, antagonist mode; activity, negative = inhibition: at 76.9 µM (top of the series) unless noted
In short: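 Beta-lactamase reporter, antagonist mode, HEK 293 GripTite cells; 0.5nM E2 stimulus, 18 h, 37 C; CCF4 dye 2 h RT; fluorescence. IC50 and efficacy from Hill fits, normalized to E2 and DMSO.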

[2] = biological target: Estrogen receptor (Homo sapiens) (UniProt P03372); experiment: qHTS assay for small molecule agonists of estrogen receptor alpha signaling (AID 588514); conditions: ER-alpha-UAS-bla HEK293, beta-lactamase ratio, 18 h; activation: at 76.8 µM (top of the series), percent of full estradiol response, vehicle zero; note: nearly all actives have a fitted effect of over 70% in size; note: potency is the fitted concentration of half-maximal effect;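 for activation: 0% = vehicle only and 100% = reference agonist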
In short: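 ER-alpha-UAS-bla GripTite HEK293 cells, 5000/well in 2% charcoal/dextran-stripped FBS medium, treated with compound titrations 18 h at 37 C. CCF4 beta-lactamase read by fluorescence after 2 h RT; normalised to 20 nM 17-beta-estradiol (100%) and DMSO (0%), Hill fit for EC50 and efficacy.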

[3] = biological target: Glucocorticoid receptor (Homo sapiens) (UniProt P04150); experiment: qHTS assay for small molecule agonists of glucocorticoid receptor signaling (AID 588532; active = well fitted curve in the direction sought with a large enough effect in the signal ratio, with a control signal flat; inconclusive = small, poorly fitted or top-dose-only effect, or a change in a side signal; inactive = no such curve, though single readings can be large or run the other way; the % refers to the signal ratio; note: potency is the fitted concentration of half-maximal effect); conditions: HeLa MMTV-bla, beta-lactamase ratio, agonist, 18 h; activation: hits give high values, percent of dexamethasone control, DMSO zero
In short: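 MMTV-bla HeLa beta-lactamase reporter cells in 1% charcoal/dextran FBS medium, compounds up to 92 uM for 18 h at 37 C, CCF4 readout; normalized to 0.1 uM dexamethasone (100%), EC50 and efficacy from Hill fits.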

[4] = biological target: Glucocorticoid receptor (Homo sapiens) (UniProt P04150); experiment: qHTS assay for small molecule antagonists of glucocorticoid receptor signaling (AID 588533; active = well fitted inhibition curve with a large enough effect in the signal ratio, with a control signal flat, not every such curve was filed as active; inconclusive = small, poorly fitted or top-dose-only effect, or effect the other way, or a change in a side signal; the % refers to the signal ratio;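 note: cells stimulated with 2 nM dexamethasone as agonist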; note: potency is the fitted concentration of half-maximal effect; for activity change, negative = inhibition: % is set by controls: 0 for no effect and ±100 for the full control effect); conditions: HeLa MMTV-bla, GRE beta-lactamase ratio, antagonist mode, 18 h; activity change, negative = inhibition: at 76.8 µM (top of the series) unless noted
[5] = biological target: Peroxisome proliferator-activated receptor delta (Homo sapiens) (UniProt Q03181); experiment: qHTS assay for small molecule antagonists of peroxisome proliferator-activated receptor delta signaling (AID 588535; active = well fitted inhibition curve with a large enough effect in the signal ratio, with a control signal flat, not every such curve was filed as active; inconclusive = small, poorly fitted or top-dose-only effect, or effect the other way, or a change in a side signal; inactive = no such curve, though single readings can be large or run the other way; the % refers to the signal ratio; note: potency is the fitted concentration of half-maximal effect); conditions: HEK293T PPARd-UAS-bla, beta-lactamase FRET ratio, 18 h; activity change, negative = inhibition: at 76.7 µM (top of the series) unless noted
In short: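 Antagonist-mode beta-lactamase reporter (GeneBLAzer PPAR-delta-UAS-bla) in HEK293T cells, 2% charcoal/dextran FBS, 4000 cells/well. Compound titrations, 18 h at 37 C; CCF4 ratio read, IC50 and efficacy from Hill fits.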

[6] = biological target: Peroxisome proliferator-activated receptor gamma (Homo sapiens) (UniProt P37231); experiment: qHTS assay for small molecule agonists of peroxisome proliferator-activated receptor gamma signaling (AID 588536; active = well fitted curve in the direction sought with a large enough effect in the signal ratio, with a control signal flat, not every such curve was filed as active; inconclusive = small, poorly fitted or top-dose-only effect, or effect the other way, or a change in a side signal; inactive = no such curve, though single readings can be large or run the other way; the % refers to the signal ratio;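 note: 0% = DMSO basal wells and 100% = rosiglitazone at 2 µM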); conditions: HEK293 PPARg-UAS-bla, beta-lactamase ratio, 16 h; activation: at 76.7 µM (top of the series), percent of rosiglitazone response, DMSO as zero unless noted
In short: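 GeneBLAzer PPAR-gamma-UAS-bla HEK293 cells in 1% charcoal/dextran-treated FBS medium were treated 16 h at 37 C with compounds. Beta-lactamase activity was read by CCF4 ratio (460/530 nm). Response was normalized to 2 uM rosiglitazone (100%) and DMSO, then Hill-fitted for EC50 and efficacy.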

[7] = biological target: Peroxisome proliferator-activated receptor gamma (Homo sapiens) (UniProt P37231); experiment: qHTS assay for small molecule antagonists of peroxisome proliferator-activated receptor gamma signaling (AID 588537; active = well fitted inhibition curve with a large enough effect in the signal ratio, with a control signal flat, not every such curve was filed as active; inconclusive = small, poorly fitted or top-dose-only effect, or effect the other way, or a change in a side signal; the % refers to the signal ratio; note: potency is the fitted concentration of half-maximal effect;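 note: reporter cells co-stimulated with 50 nM rosiglitazone agonist during compound treatment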; for activity, negative = inhibition: % of control where 0% means no effect); conditions: HEK293 PPARg-UAS-bla, beta-lactamase ratio, antagonist mode
In short: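 PPARγ-UAS-bla HEK293 cells (3000/well) in 1% charcoal/dextran-stripped FBS are treated with compound, then stimulated with 50 nM rosiglitazone for 16 h at 37 °C. Read-out is CCF4 β-lactamase fluorescence after 2 h at RT. IC50 comes from Hill fits normalised to rosiglitazone and DMSO.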

[8] = biological target: Vitamin D3 receptor (Homo sapiens) (UniProt P11473); experiment: qHTS assay for small molecule agonists of vitamin D receptor signaling (AID 588543); conditions: HEK293T VDR-UAS-bla, beta-lactamase ratio, 16 h; activation: at 76.8 µM (top of the series); note: potency is the fitted concentration of half-maximal effect
In short: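 β-lactamase reporter, VDR-UAS-bla HEK293T, agonist mode. Cells plated 5 h at 37 °C, compound titration 16 h at 37 °C, CCF4 dye 2 h RT, ratio 460/530 nm. Hill fit → EC50, efficacy vs 50 nM 1α,25-(OH)2D3.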

[9] = biological target: Retinoic acid receptor RXR-alpha (Homo sapiens) (UniProt P19793); experiment: qHTS assay for small molecule agonists of retinoid X receptor alpha signaling (AID 588544); conditions: HEK293T RXRa-UAS-bla, beta-lactamase reporter, 18 h; activation: at 76.7 µM (top of the series) unless noted;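 note: 0% = DMSO basal wells and 100% = reference agonist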
[10] = Cellular Toxicity (caspase-3) HepG2 (AID 654; active = well fitted curve in the direction sought with a large enough effect; inconclusive = small, poorly fitted or top-dose-only effect, or another doubt; inactive = no such curve, though single readings can be large; an effect the other way counts as inactive or inconclusive; note: potency is the fitted concentration of half-maximal effect)
In short: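 HepG2 cells (1500/well) were treated 16 h at 37 °C in complete medium, then caspase 3/7 activity was read by Caspase-Glo luminescence. Data were normalized to DMSO and 100 uM tamoxifen; AC50 came from Hill-equation fits of qHTS concentration-response.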

[11] = Cellular Toxicity (caspase-3) Hek293 (AID 664; active = well fitted curve in the direction sought with a large enough effect; inconclusive = small, poorly fitted or top-dose-only effect, or another doubt; inactive = no such curve, though single readings can be large; an effect the other way counts as inactive or inconclusive;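 note: cells exposed to compound for 16 h at 37 °C before readout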); conditions: HEK293 caspase-3 activation, DMSO = 0%, 100 µM tamoxifen = 100%; at 92.2 µM (top of the series)
In short: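 HEK293 cells in complete medium treated 16 h at 37 °C, then Caspase-Glo 3/7 luminescence read after 20 min at room temperature. Normalized to DMSO and 100 uM tamoxifen; AC50 from Hill fit of concentration-response.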

[12] = Cell Viability - LYMP2-001 (AID 921; active = well fitted curve in the direction sought with a large enough effect; inconclusive = small, poorly fitted or top-dose-only effect, or another doubt; inactive = no such curve, though single readings can be large; an effect the other way counts as inactive or inconclusive;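 note: cells exposed to compound for 24 h at 37 °C; 0% = DMSO only and full inhibition = tetraoctylammonium bromide control wells; nearly all actives have a fitted effect of over 70% in size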); conditions: LYMP2-001 lymphoblastoid cell viability; activity change, negative = cytotoxic: at 92.2 µM (top of the series)
In short: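 CellTiter-Glo luminescence (intracellular ATP) after 24 hr compound exposure at 37 C, 2500 lymphoblastoid cells/well in complete medium. AC50 fitted with standard Hill equation; tetraoctylammonium bromide positive control.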

[13] = Cell Viability - LYMP2-020 (AID 986; active = well fitted curve in the direction sought with a large enough effect; inconclusive = small, poorly fitted or top-dose-only effect, or another doubt; inactive = no such curve, though single readings can be large; an effect the other way counts as inactive or inconclusive;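 note: cells exposed to compound for 24 h at 37 °C; plate controls were DMSO only for no effect and tetraoctylammonium bromide at 92 µM for full effect; nearly all actives have a fitted effect of over 55% in size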); conditions: activity change, negative = viability loss: at 92.2 µM (top of the series)
In short: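 Human lymphoblastoid LYMP2-020 cells (2500/well) preincubated 5 h at 37 C, then treated 24 h at 37 C. Viability measured as intracellular ATP by CellTiter-Glo luminescence after 30 min at room temperature; AC50 from Hill fits.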

[14] = biological target: Bile acid receptor (Homo sapiens) (UniProt Q96RI1); experiment: qHTS assay for small molecule antagonists of farnesoid X receptor signaling (AID 588526); conditions: HEK293T FXR-UAS-bla, beta-lactamase ratio, antagonist mode; note: % is set by controls: 0 for no effect and ±100 for the full control effect
In short: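 Antagonist mode: titrated compounds tested against chenodeoxycholic acid stimulation (normalized to 50 uM CDCA and DMSO) in GeneBLAzer HEK293T cells for 16 h. Beta-lactamase read by CCF4 fluorescence; IC50 from Hill fits.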

[15] = biological target: Peroxisome proliferator-activated receptor delta (Homo sapiens) (UniProt Q03181); experiment: qHTS assay for small molecule agonists of peroxisome proliferator-activated receptor delta signaling (AID 588534); conditions: HEK293T PPARdelta-UAS-bla, beta-lactamase ratio, 18 h; activation: at 76.7 µM (top of the series); note: potency is the fitted concentration of half-maximal effect
In short: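 Cells carrying a PPAR-delta beta-lactamase reporter were treated with compounds for 18 h at 37 °C in agonist mode. CCF4 fluorescence was read after 2 h; EC50 and efficacy from Hill fits.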

[16] = biological target: Retinoic acid receptor RXR-alpha (Homo sapiens) (UniProt P19793); experiment: qHTS assay for small molecule antagonists of retinoid X receptor alpha signaling (AID 588546; active = well fitted inhibition curve with a large enough effect in the signal ratio, with a control signal flat, not every such curve was filed as active; inconclusive = small, poorly fitted or top-dose-only effect, or effect the other way, or a change in a side signal; inactive = no such curve, though single readings can be large or run the other way; the % refers to the signal ratio; note: potency is the fitted concentration of half-maximal effect;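 for max response: cells stimulated with 9-cis-retinoic acid as agonist; % is set by controls: 0 for no effect and ±100 for the full control effect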); conditions: HEK293T RXRa-UAS-bla, beta-lactamase ratio, antagonist mode
In short: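 Beta-lactamase reporter inhibition, read as CCF4 fluorescence ratio (ex 405, em 460/530 nm) after 2 h at RT. HEK293T UAS-bla cells, 2500/well, were stimulated with 9-cis-RA at 500 or 100 nM final alongside test compound for 18 h at 37 C.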

[17] = qHTS assay for small molecule agonists of the antioxidant response element (ARE) signaling pathway (AID 651741; active = well fitted activation curve with a large enough effect in the signal ratio; inconclusive = small, poorly fitted or top-dose-only effect, or effect the other way, or a change in a side signal; the % refers to the signal ratio; note: potency is the fitted concentration of half-maximal effect; for activation: % of control where 0% means no effect); conditions: HepG2 ARE-bla reporter, beta-lactamase FRET ratio, 16 h; activation: at 96 µM (top of the series) unless noted
In short: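 CellSensor ARE-bla HepG2 cells (2,000/well) carrying ARE-driven beta-lactamase, exposed 16 h at 37 C. LiveBLAzer B/G FRET substrate added for 2 h at room temperature; fluorescence intensity read.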

[18] = qHTS assay for small molecule disruptors of the mitochondrial membrane potential - 5 hr assay (AID 651755); conditions: JC-1-type ratio dye; ratio change, negative = disruption: at 92.2 µM (top of the series); note: potency is the fitted concentration of half-maximal effect; nearly all actives have a fitted effect of over 40% in size
In short: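 HepG2 cells (2,000/well), attached overnight, exposed to compound 5 hr at 37C, then Mito-MPS dye 30 min. Fluorescence read for monomers (490/535 nm) and aggregates (540/590 nm).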

[19] = qHTS assay to identify small molecules that stimulate interleukin-8 (IL-8) secretion (AID 651758; active = well fitted activation curve with a large enough effect in the signal ratio; inconclusive = small, poorly fitted or top-dose-only effect, or effect the other way, or a change in a side signal; the % refers to the signal ratio; note: 0% is about no effect); conditions: HTRF ratio (665/615); activation: at 92.2 µM (top of the series)
In short: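 THP-1 cells (2000/well) exposed to compound 16 h at 37 C; secreted IL-8 then detected by HTRF with cryptate- and XL665-labelled anti-IL-8 antibody pair after 1-3 h at room temperature.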

[20] = qHTS assay for small molecule agonists of the antioxidant response element (ARE) signaling pathway measured by Nrf2-dependant transcriptional activity (AID 720636; active = well fitted curve in the direction sought with a large enough effect in the repeat runs; inconclusive = weak or mixed curves; inactive = no such curve, though single readings can be large; an effect the other way counts as inactive or inconclusive; note: potency is the fitted concentration of half-maximal effect)
In short: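 Quantitative HTS format in HepG2 cells stably expressing an ARE-luciferase reporter; 16 hr compound treatment at 37 C, luciferase signal detected with ONE-Glo.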

[21] = qHTS assay for small molecule activators of the p53 signaling pathway (AID 651743; active = well fitted activation curve with a large enough effect in the signal ratio, not every such curve was filed as active; inconclusive = small, poorly fitted or top-dose-only effect, or a change in a side signal; the % refers to the signal ratio; note: potency is the fitted concentration of half-maximal effect); conditions: HCT-116 p53RE-bla, beta-lactamase FRET ratio, 16 h; activation: hits give high values
In short: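 p53RE-bla HCT-116 cells carrying a beta-lactamase reporter under p53 response elements were exposed to compounds for 16 hours at 37 C. Reporter activity read as fluorescence after 2 hours at room temperature with LiveBLAzer B/G FRET substrate.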

[22] = biological target: Peroxisome proliferator-activated receptor alpha (Homo sapiens) (UniProt Q07869); experiment: qHTS assay for small molecule agonists of the peroxisome proliferator-activated receptor alpha (PPARalpha) signaling pathway (AID 651778; active = well fitted curve in the direction sought with a large enough effect; inconclusive = small, poorly fitted or top-dose-only effect, or another doubt; inactive = no such curve, though single readings can be large; an effect the other way counts as inactive or inconclusive; note: % of control where 0% means no effect); conditions: PathHunter PPARalpha complementation, chemiluminescence, 6 h; max response: hits give high values
In short: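 Enzyme-fragment complementation assay in which ligand-bound PPARalpha translocates and forms an active enzyme that generates chemiluminescence. Cells were plated overnight, exposed to compound for 6 hr at 37 C, and then given detection reagent for 60 min at room temperature.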

[23] = activity, negative = inhibition: at 76.8 µM (top of the series)
Tags give direction and shape of the fitted curve or compound fluorescence and quenching.

Chain of UniProt Q03181 (Q03181 whole entry, looked up): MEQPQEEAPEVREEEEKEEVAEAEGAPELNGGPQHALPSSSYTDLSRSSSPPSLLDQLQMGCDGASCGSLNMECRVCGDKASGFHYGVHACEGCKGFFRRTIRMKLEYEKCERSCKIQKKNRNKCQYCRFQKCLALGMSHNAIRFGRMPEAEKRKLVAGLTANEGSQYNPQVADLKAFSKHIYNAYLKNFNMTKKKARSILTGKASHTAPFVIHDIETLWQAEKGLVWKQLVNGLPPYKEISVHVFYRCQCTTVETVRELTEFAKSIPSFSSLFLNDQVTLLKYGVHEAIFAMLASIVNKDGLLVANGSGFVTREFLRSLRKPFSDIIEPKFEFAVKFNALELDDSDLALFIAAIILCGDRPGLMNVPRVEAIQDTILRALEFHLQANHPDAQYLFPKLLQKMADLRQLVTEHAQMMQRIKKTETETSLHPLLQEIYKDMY
Chain of UniProt P03372 (P03372 whole entry, looked up): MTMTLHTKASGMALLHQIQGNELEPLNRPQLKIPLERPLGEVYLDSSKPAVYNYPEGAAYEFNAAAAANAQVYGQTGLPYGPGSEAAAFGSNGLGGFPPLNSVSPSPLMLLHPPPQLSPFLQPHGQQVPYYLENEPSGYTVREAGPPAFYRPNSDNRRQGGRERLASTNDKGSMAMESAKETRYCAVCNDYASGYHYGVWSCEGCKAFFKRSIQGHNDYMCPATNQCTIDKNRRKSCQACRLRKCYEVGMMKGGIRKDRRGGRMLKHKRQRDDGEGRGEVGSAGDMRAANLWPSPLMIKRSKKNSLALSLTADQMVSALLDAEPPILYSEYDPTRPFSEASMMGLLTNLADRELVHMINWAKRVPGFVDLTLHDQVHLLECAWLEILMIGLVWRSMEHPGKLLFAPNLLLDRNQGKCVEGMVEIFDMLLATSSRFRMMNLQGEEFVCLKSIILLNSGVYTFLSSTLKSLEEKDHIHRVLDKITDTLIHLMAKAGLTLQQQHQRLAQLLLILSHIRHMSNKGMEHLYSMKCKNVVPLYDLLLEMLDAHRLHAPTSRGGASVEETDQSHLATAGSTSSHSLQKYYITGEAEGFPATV
Chain of UniProt P19793 (P19793 whole entry, looked up): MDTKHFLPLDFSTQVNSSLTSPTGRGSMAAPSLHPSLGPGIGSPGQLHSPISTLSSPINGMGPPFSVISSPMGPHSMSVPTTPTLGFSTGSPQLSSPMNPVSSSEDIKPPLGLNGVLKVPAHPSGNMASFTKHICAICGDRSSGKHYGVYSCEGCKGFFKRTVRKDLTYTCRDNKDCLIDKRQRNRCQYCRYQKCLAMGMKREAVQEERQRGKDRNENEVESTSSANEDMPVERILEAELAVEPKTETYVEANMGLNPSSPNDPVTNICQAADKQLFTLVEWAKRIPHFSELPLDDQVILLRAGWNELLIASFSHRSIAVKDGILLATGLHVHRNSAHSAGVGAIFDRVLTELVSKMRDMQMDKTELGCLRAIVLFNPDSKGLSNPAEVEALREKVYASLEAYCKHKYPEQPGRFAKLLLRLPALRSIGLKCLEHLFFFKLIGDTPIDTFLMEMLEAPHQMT
Chain of UniProt Q07869 (Q07869 whole entry, looked up, the tested form may be a part): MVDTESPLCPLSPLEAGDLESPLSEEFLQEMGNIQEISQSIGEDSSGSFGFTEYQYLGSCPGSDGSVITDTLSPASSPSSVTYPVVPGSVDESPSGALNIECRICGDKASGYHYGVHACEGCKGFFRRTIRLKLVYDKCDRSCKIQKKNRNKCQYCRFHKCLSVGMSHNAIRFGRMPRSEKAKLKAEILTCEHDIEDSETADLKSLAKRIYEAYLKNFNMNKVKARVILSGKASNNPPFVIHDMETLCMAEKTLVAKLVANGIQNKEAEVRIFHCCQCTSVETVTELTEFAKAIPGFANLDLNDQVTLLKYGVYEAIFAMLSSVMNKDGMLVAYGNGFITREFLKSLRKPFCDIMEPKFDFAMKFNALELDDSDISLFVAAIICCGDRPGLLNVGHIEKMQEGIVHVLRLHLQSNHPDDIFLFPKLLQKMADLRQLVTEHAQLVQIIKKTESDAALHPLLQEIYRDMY

For `CC(C)(C)C(O)/C(=C\c1ccc(Cl)cc1Cl)n1cncn1` (centres undefined), the Potency [1] was inconclusive: 14.1 µM [side channel, rising, single point], the Potency [2] was “inactive” and the Potency [3] was inconclusive: 25.1 µM [side channel, rising, partial curve, poor fit]. For the same molecule, the Potency [4] was active: 35.5 µM, the Potency [5] was inconclusive: 39.8 µM [inhibitor, single point] and the activation [6] was inconclusive: -21.4%. The Potency [7, 23] was inconclusive: 50.1 µM [side channel, rising, single point], the Potency [8] was inconclusive: 44.7 µM [activator, single point] and the activation [9] was inconclusive: -25%.
In the case of `CC(C)(c1ccccc1)c1ccc(O)cc1`, the Potency [10] is reported as inconclusive: 79.4 µM [rising, single point], the caspase-3 activation [11] is reported as inconclusive: 48.5% and the Potency [12] is reported as “inactive”. The Potency [13] was “inactive”, the activity, negative = inhibition [1] was inconclusive: -37.7% and the Potency [2] was active: 1.78 µM and active: 3.16 µM. For the same molecule, the activity change, negative = inhibition ([14]; activity change, negative = inhibition: at 76.7 µM (top of the series)) was inconclusive: -4.8%, the activity change, negative = inhibition ([14]; at 76.7 µM (top of the series)) was inactive: -10.7% and the Potency [15] was inconclusive: 31.6 µM [activator, single point]. The activity change, negative = inhibition [5] was inconclusive: -51.4%, the Potency [7, 23] was inconclusive: 50.1 µM [fluorescent, side channel, single point] and the activity, negative = inhibition [7, 23] was inconclusive: -9.93%. The Potency [9] was “inactive”, the max response [16] was inconclusive: -41.6% and the Potency [17] was inconclusive: 75 µM [activator, single point] and inconclusive: 61.1 µM [activator, partial curve]. For the same molecule, the Potency [18] was active: 33.5 µM, the Potency [19] was “inactive” and the Potency [20] was inconclusive: 34.4 µM [activator, partial curve, poor fit].
With `O=C(O)C(F)(F)C(F)(F)C(F)(F)C(F)(F)C(F)(F)C(F)(F)C(F)(F)C(F)(F)C(F)(F)F` the Potency [1] was inconclusive: 15.8 µM [inhibitor, partial curve, poor fit] and inconclusive: 3.98 µM [inhibitor, full curve, poor fit], the activation [2] was inconclusive: 67.2% and the Potency [3] was inconclusive: 7.08 µM [side channel, rising, partial curve, poor fit]. The activity change, negative = inhibition [4] was inconclusive: 16%, the activity, negative = inhibition [7, 23] was inconclusive: 7.13% and the activity, negative = inhibition ([7]; at 76.8 µM (top of the series)) was inactive: 2.04%. For the same molecule, the Potency [9] was “inactive”, the Potency [16] was inconclusive: 31.6 µM [inhibitor, partial curve, poor fit] and the Potency [17] was inconclusive: 43.3 µM [activator, partial curve, poor fit]. The activation [17] was inconclusive: 3.31%, the Potency [21] was inconclusive: 2.2 nM [side channel, falling, full curve, poor fit] and the max response [22] was inactive: -0.9% and inactive: 3.39%.
